# Test results as given in paper PMC12136788.
# The list shows a part of the results.
# T1: UNK ZnF1-3 (human, UniProt Q9C0B0 31-174)
# T1 sequence: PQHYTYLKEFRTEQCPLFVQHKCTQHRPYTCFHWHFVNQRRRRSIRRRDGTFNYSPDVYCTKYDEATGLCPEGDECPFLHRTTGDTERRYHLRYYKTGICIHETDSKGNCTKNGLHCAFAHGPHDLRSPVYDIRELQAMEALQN
# B1: chr16:37881740:37881741:+_ENSMUSG00000034158_ENSMUST00000078717|mus_hu|motif|central (ssRNA)
# RNA: GGGAGUUCUACAGUCCGACGAUCCUGCAAACCAUCAGCCAAAUGUGAAACUAUCAUUCACAAAUUAUGUUAAAAUAAUCGGAACAUGGGACUGGACUCAUUCUUGCUGAAUGGGUAGAUGAAACACAAAAUGUUUUAUAUCAUCAACAGAGGAUUGAGCAUCA
# B2: chr13:3555642:3555643:+_ENSMUSG00000021218_ENSMUST00000059515|mus_mus|motif|central (ssRNA)
# RNA: GGGAGUUCUACAGUCCGACGAUCAUCAAACUUCUUAUACACAUCUCUCAUGGAGGUCUUCUUAGGAUCAACACCCUCGAAAGUUCGGGGAUCUUUUUCAUCAAAGUUGGCAACAUAAACCAGGAACUUCCUGAAACGGCGUUUCAACAGAGGAUUGAGCAUCA
# B3: 135693221_135693341_2099_CDS_ENSMUSG00000002748_ENSMUST00000002825|mouse|control|control (ssRNA)
# RNA: GGGAGUUCUACAGUCCGACGAUCGAGGUUUCUGCCACCUAACUCCUGGUCCUCAAAUCGCUUCUGCUUUUCUAACCUCUCCAGCAUUUCUCUCUCUCUCCGUUCUUUGGCUUUUUCCCGCAACCUCUCCUUUAGCUCCUGUCGCAACAGAGGAUUGAGCAUCA
# B4: chr22:38884116:38884117:-_ENSG00000100201_ENST00000396821|hu_mus|motif|central (ssRNA)
# RNA: GGGAGUUCUACAGUCCGACGAUCAUAAUCCUCUGAGCUGUUUGGAUAAUCGUAGUUGAUGACAAACUUGACAUCUUCCACAUCGGGCCCACGGGAGGCUACAUCCGUGGCAAUGAGGAUAGGAGCCUUUCCAGAUCGGAACUCCAACAGAGGAUUGAGCAUCA
# B5: 32562287_32562407_2709_CDS_ENSG00000100852_ENST00000539826|human|control|control (ssRNA)
# RNA: GGGAGUUCUACAGUCCGACGAUCUUUUCUUACUCCAAUUGAAGAGUGGUAUGAUAAUAUUGUGAUCUGUAUUCGCCUCCUUUUUUCACCAAUGAUUUUAUCAAGCAUUAGGGAAUUAUUCUGUCCAGCUUGAGCAGCACUGCACAACAGAGGAUUGAGCAUCA
# B6: chr14:76904430:76904431:+_ENSMUSG00000022010_ENSMUST00000022587|mus_mus|mus_mus_mus_hu_True|1_38 (ssRNA)
# RNA: GGGAGUUCUACAGUCCGACGAUCUGCAGCCAAAAACACCCUCGUGGAAAAAAAGAGGGAACACCAGCAGCCUUGUAUAAGCUAGAUAAAAUCUUCUAGCUGUCUGCAGCCCAGGGAGAAACAGAAAACGGCAGCCCUCGAGUGCAACAGAGGAUUGAGCAUCA
# B7: chr7:150251850:150251851:+_ENSMUSG00000037706_ENSMUST00000037941|mus_mus|FALSE|FALSE (ssRNA)
# RNA: GGGAGUUCUACAGUCCGACGAUCGAAGCCCCAGAUGCCUGCAGCCACCUCACAGGCAAACAGGAUCACAAGGCAGGUGAAGAACGUCCCCAGCAGACACUGGGACUCCUGGAUGGCCCCAUAGCACCCCAGGAAGCCUACAAACAACAGAGGAUUGAGCAUCA
# B8: 137538005_137538125_1635_3pUTR_ENSMUSG00000030850_ENSMUST00000033139|mouse|control|control (ssRNA)
# RNA: GGGAGUUCUACAGUCCGACGAUCGAGCCGAGAAGCAGGUGGGACUGUGGCAAGAGAUGCCAGGCUGGCGCUGGGCUGAGGUGCAGGCCUUCAGUGUCUGAACAGCAGCAUCCUCUCCGAGCACUUCUGUCCUACGAGGUUUGCCAACAGAGGAUUGAGCAUCA
# B9: chr3:133126781:133126782:-_ENSMUSG00000040943_ENSMUST00000098603|mus_mus|motif|central (ssRNA)
# RNA: GGGAGUUCUACAGUCCGACGAUCCAGUAUUUAUAACCACCCUCAGAUUGUAUAAACAAAGCCAAAAUCUCAGGAAGUAAGCGGCAUUAAAAAAUAAAGCAUAGAAAAAUGCACACAGAAGUUCAUUAUCUUAGUGUCAAACUGCAACAGAGGAUUGAGCAUCA
# B10: chr1:115268999:115269000:-_ENSG00000009307_ENST00000339438|hu_hu|motif|central (ssRNA)
# RNA: GGGAGUUCUACAGUCCGACGAUCUAAAAGUCGCACACAAGUUGCAACCUGCUGUCCAGGCCUCUGUUUGUCACUAAUACGGAAUUCAACCUUAUCUCCUAUUUGAGGAGAAGUAGAUCCUUCCACAUCCUUGGCUUGAAAAGCCAACAGAGGAUUGAGCAUCA
# B11: chr11:29608385:29608386:+_ENSMUSG00000020458_ENSMUST00000102843|mus_hu|FALSE|FALSE (ssRNA)
# RNA: GGGAGUUCUACAGUCCGACGAUCCCUGGCUAAUUUAGAAAAUGAAUCAGUUUUAGAACUGAUCAAUGUAGGGAACUCAUCUAUAAUUUCAAUUGGAGAUGAAUCUGAAAACGUUUCAGUUUCUCUUAUCUGUGCUUCCUUAGACAACAGAGGAUUGAGCAUCA
# B12: chr3:179287964:179287965:+_ENSG00000136518_ENST00000429709|hu_hu|hu_hu_hu_mus_True|8_38 (ssRNA)
# RNA: GGGAGUUCUACAGUCCGACGAUCCUUGAGUGGUGAGAUGGCCUCCAUGUUCUCCCUGGGCACGCGGAGGGCAUUGGUGUCUAUGUAGUAGGUGGGCCCGCCUUGUUUGCCUUUGUCACCAUCAAUCUCCAUUAAUGUACUUCCCAACAGAGGAUUGAGCAUCA
# B13: 106621276_106621396_1018_CDS_ENSMUSG00000040661_ENSMUST00000046502|mouse|control|control (ssRNA)
# RNA: GGGAGUUCUACAGUCCGACGAUCGGCCAGGAAGACAUUCUCCUCCUCUGGAGGGUGAUUCAGGUUGACAAGGACCCGCCCGAGAGCAUCAUGCUGGUUUAAGGCGUCAUUCACAUGGGUGCCACCCUUCUCCUCUUCCUCGUCCAACAGAGGAUUGAGCAUCA
# B14: chr2:32654292:32654293:+_ENSG00000115760_ENST00000421745|hu_hu|FALSE|FALSE (ssRNA)
# RNA: GGGAGUUCUACAGUCCGACGAUCUAAAGGUUUGGAACCUUCUGAAGAUGGUUCUAUUCCUUUAGAAAGAGAUCCAUCCACUAGUAUAUCAGCUUCAUCAAUAUCAUCACAGGUUCCUCCAAUUUGGAGAAAAUGAAGCUCACCCAACAGAGGAUUGAGCAUCA
# B15: chr12:105536279:105536280:+_ENSG00000136051_ENST00000332180|hu_mus|hu_hu_hu_mus_True|1_1 (ssRNA)
# RNA: GGGAGUUCUACAGUCCGACGAUCAGCACUGAACAUGUAAUGUAAUCUGGCUGCAUCGACAGCAUUUUCAUAUACAUCAUCUAAAUAAAUCGGGAAGACAGCGCGAUGCCAGUAUAAAAAACAGCAGUCACACUGUGUUUGGACCAACAGAGGAUUGAGCAUCA
# B16: chr14:89338683:89338684:+_ENSG00000165533_ENST00000346301|hu_hu|hu_hu_hu_mus_False|78_98 (ssRNA)
# RNA: GGGAGUUCUACAGUCCGACGAUCGUGGUUGUUGUGGACCAGAGCCAGCCUGAAGCACUGAUGGGCCAAGUUUGUAUCUCCGAUUCCCACAGCUAUGUGCCCCAGGUUGUACCAGACAUCAGCUGCCUCUUCUUCAUUUUCAGCCAACAGAGGAUUGAGCAUCA
# B17: chr6:146598974:146598975:+_ENSMUSG00000030291_ENSMUST00000032429|mus_mus|FALSE|FALSE (ssRNA)
# RNA: GGGAGUUCUACAGUCCGACGAUCCAGUGGCAAUUUCAGAGUUUUUUACUUAUCAAGAGUGAAAACAGAACACAAUGAAAACUAGCUAAAAAAAAAGGCAACACAGUCAUAGCAUAUGAUAUUCUGUAGCUGUUGGUAGGGCUUCAACAGAGGAUUGAGCAUCA
# B18: chr14:66974463:66974464:+_ENSMUSG00000022044_ENSMUST00000074523|mus_hu|mus_mus_mus_hu_False|8_68 (ssRNA)
# RNA: GGGAGUUCUACAGUCCGACGAUCUUGUAGGACGACUUAUUCAGGGGAUCGGCCAGGAAGCAGGAGCAGAACAGAGACACCAGCGGGAGCUCCUUCAUCUUCUCUUUGUAGGCAGCAAGGGUCAUGUUGGCUGGAAUUGGUGGCCAACAGAGGAUUGAGCAUCA
# B19: 64824021_64825391_2519_3pUTR_ENSG00000184575_ENST00000332707|human|control|control (ssRNA)
# RNA: GGGAGUUCUACAGUCCGACGAUCAACAGUCCAGAUAAACUUCGGAACAGCCACAUUGUUUCACAGUCUGUUUGUUGCUGAAAGCUUUACUGGUUCGACUUGCAAAUCCAACAGCAUGGUUAAGACAGUCUGCUAGAGAGGCUUCAACAGAGGAUUGAGCAUCA
# B20: chr16:45382771:45382772:-_ENSMUSG00000022661_ENSMUST00000163230|mus_mus|mus_mus_mus_hu_True|68_78 (ssRNA)
# RNA: GGGAGUUCUACAGUCCGACGAUCCUGGGUCAUGUUAUAAGACAAAUGGACAGGGAGAGCAUGCUUUUGUAAAGAUGUGAGCUAUUGUCUAAGACUAACAAUAUUUAUCUAGCUAUAAAAAUAAGUUAAAUGAAUAAGUUAAGACAACAGAGGAUUGAGCAUCA
# B21: 4493429_4493795_1021_CDS_ENSMUSG00000004961_ENSMUST00000065957|mouse|control|control (ssRNA)
# RNA: GGGAGUUCUACAGUCCGACGAUCUGAGAGUCCUCCUACAUCCAUUUUCUUCAGGUUUUUAGCUUCCAAGACAAUGACGGUGAGCUUCCCGGCCGUGGGGACAUAACGGAGAGAGAAGCAGAUGUCCCCCAGUUUCUCUUGCUCCAACAGAGGAUUGAGCAUCA
# B22: chr6:349326:349327:+_ENSG00000112679_ENST00000419235|hu_hu|FALSE|FALSE (ssRNA)
# RNA: GGGAGUUCUACAGUCCGACGAUCAUGAAUUCUGUGACUUCCAGCAGUAAGAAAGAGUUCACACACACACAAACAUUCAUGUGCACAGACACUUUCACAACAUACACACAUGUACACACUUAGGUGCACAUACCCUCACUCACACAACAGAGGAUUGAGCAUCA
# Target: T1, UNK ZnF1-3
# Assay: nsRBNS (natural sequence RNA bind-n-seq); RBNS binding buffer (assumed for nsRBNS): 25 mM Tris pH 7.5, 150 mM KCl, 3 mM MgCl2, 0.01% Triton X-100, 500 ug/ml BSA, 20 U/ml SUPERase-In, 4 C; UNK is unkempt and MSI1 is Musashi-1; names of the RNAs are library labels; protein concentration not given here; high values mean tight binding
row,Binder,binding signal [enrichment R]
1,B1,0.893
2,B2,0.875
3,B3,0.425
4,B4,0.94
5,B5,0.763
6,B6,2.33
7,B7,1.17
8,B8,1.09
9,B9,1.35
10,B10,0.71
11,B11,1.02
12,B12,0.605
13,B13,1.06
14,B14,0.545
15,B15,1.61
16,B16,0.739
17,B17,1.6
18,B18,2.14
19,B19,0.944
20,B20,0.952
21,B21,0.696
22,B22,0.845
